Assay results: PubChem BioAssay AID1345083 (National Center for Advancing Translational Sciences (NCATS), 2018)
Screen size: about 94,000 compounds; about 6,200 (6.6%) were called active. This list was built around the results that the source calls inconclusive (neither active nor inactive); the mix of calls is not that of the screen. Calls come from the whole dose curve; as a rule, active = well fitted inhibition curve with a large enough effect; inconclusive = small, poorly fitted or top-dose-only effect; inactive = flat fitted curve, though single readings scatter. Potencies of inconclusive entries are doubtful fits and often do not repeat.

Test: Cytotoxic Profiling in HEK 293 Cell Line of Diverse Libraries Using Quantitative High-Throughput Screening; note: nearly all actives have a fitted effect of over 60% in size
Details: HEK 293 viability, ATP luminescence (CellTiter-Glo), 48-72 h; series mostly up to 115 µM
Summary of the method: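 ATP-coupled CellTiter-Glo luminescence served as viability read-out, recorded 10 min after reagent addition at room temperature. HEK 293 cells, 250 cells/well, had been incubated with pintool-transferred compound for 48 or 72 hr at 37 degree Celsius.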
Potency is the fitted concentration of half-maximal effect; tags give direction and shape of the fitted curve.

Compound | Potency
O=C(CCc1ccc(-c2ccc(Cl)cc2)[nH]1)N[C@@H]1C[C@@H]2OCC[C@@H]21 | active: 79.4 µM
O=C1COc2ccc(-c3ccc(F)cc3)nc2CN1Cc1ccccc1F | active: 100 µM
COc1ccc(C2(C(=O)N3CCC(N4CC5CC(C4)[C@H]4CCCC(=O)N4C5)CC3)CC2)cc1 (stereo partly specified) | inactive
Cc1ccc(-c2cc(N3CCCN(C(=O)c4ccc5c(c4)OCO5)CC3)n[nH]2)cc1C | inconclusive: 44.7 µM [inhibitor, partial curve, poor fit]
Cc1ccc(CN2CCCN(S(C)(=O)=O)C(c3ccccc3)CC(=O)NCC2)o1 (stereo unspecified) | inconclusive: 50.1 µM [inhibitor, partial curve, poor fit]
CNc1ccc(OC2CCN(C(=O)CCc3nc4ccccc4[nH]3)C2)nc1 (stereo unspecified) | inconclusive: 89.1 µM [inhibitor, partial curve, poor fit]
O=C(CC(F)(F)F)N1CCOc2ccc(CN3CCc4ccccc4C3)cc2C1 | inconclusive: 79.4 µM [inhibitor, partial curve]
Cc1nc(-c2ccc(Cl)cc2)n(CC(=O)Nc2cccc(C(F)(F)F)c2)c(=O)c1CCO | active: 39.8 µM
Cc1cnc(CCNC(=O)Cc2cccc(F)c2)n1Cc1ccc(F)cc1 | inconclusive: 56.2 µM [inhibitor, partial curve, poor fit]
Cc1ccc2c(c1)nc1n2[C@@H](CNCc2ccccc2)COC1 | inconclusive: 44.7 µM [inhibitor, partial curve, poor fit]
O=C(NCC(F)F)C1CCCN(c2nccc(Nc3ccccc3F)n2)C1 (stereo unspecified) | inconclusive: 56.2 µM [inhibitor, partial curve, poor fit]
CN1c2cc(C(=O)Nc3ccc(OC(F)(F)F)cc3)ccc2C(=O)N2CCCC21 (stereo unspecified) | inactive
O=C(Cn1nc2n(c1=O)CCCC2)NCCCc1ccccc1 | inactive
Cc1ccc(NC(=O)Cn2c(N3CCc4ccccc4C3)nc(C)cc2=O)c(C)c1 | inconclusive: 89.1 µM [inhibitor, single point]
CCNC(=O)O[C@@H]1CO[C@H]2[C@@H]1OC[C@@H]2Nc1nccc(-c2cccs2)n1 | inconclusive: 100 µM [inhibitor, partial curve, poor fit]
COc1ccc(-c2onc(C)c2C(=O)NCc2c(OC)cc(OC)cc2OC)cc1 | active: 31.6 µM
O=c1[nH]c(C2CCCN(Cc3ccccc3)C2)nn1-c1ccc(Cl)cc1 (stereo unspecified) | inconclusive: 50.1 µM [inhibitor, partial curve, poor fit]
O=C(Nc1cccc(C(F)(F)F)c1)O[C@@H]1CO[C@H]2[C@@H]1OC[C@@H]2n1cc(-c2ccccn2)nn1 | active: 35.5 µM
Cc1ccccc1-n1nc(-c2c(C)nc3c(OCC(=O)OC(C)(C)C)cccn3c2=O)cc1C | inconclusive: 89.1 µM [inhibitor, single point]
CCCCn1c(=O)c(C(=O)N2CCN([S+](=O)([O-])c3cccs3)CC2)nc2cccnc21 | inactive
C=CCOC(=O)C1=C(C)N=C2SC=C(CC(=O)N3CCOCC3)N2C1c1ccc(C)cc1C (stereo unspecified) | inconclusive: 79.4 µM [inhibitor, partial curve, poor fit]
N#Cc1ccc(CN2CCC[C@H]2c2nc(-c3ccc(F)cn3)no2)cc1 | inactive

Compound | Potency
COC1=C(c2ccc(F)cc2)C(=O)N(Cc2ccccc2)C1 | inconclusive: 70.8 µM [inhibitor, single point]
O=C(Nc1ccccc1)N1CCN(C(=O)c2cccc(-c3ccccn3)c2)CC1 | inactive
Cc1ccc(-c2cc3c(=O)n(CCNC(=O)c4cc(F)ccc4F)ccn3n2)c(C)c1 | inactive
Cc1ccc(S(=O)(=O)NC[C@H]2OC[C@@H](NCC3CC3)[C@@H]2O)cc1 | inactive
CNC(=O)c1cc(C2CC2)nc2onc(C3CCN([S+](=O)([O-])CCC(F)(F)F)C3)c12 (stereo unspecified) | inconclusive: 50.1 µM [inhibitor, partial curve, poor fit]
CCc1nc2c(c(-c3ccc(Cl)cc3)n1)CCN(C(=O)c1ccc(C)cc1)CC2 | inconclusive: 31.6 µM [inhibitor, partial curve, poor fit]
O=C(Nc1cccc(C(F)(F)F)c1)N[C@H]1[C@H](O)[C@@H](Oc2ccccc2)[C@@H]2OC[C@H]1O2 | inconclusive: 56.2 µM [inhibitor, partial curve, poor fit]
COCCCn1c(=O)c(C(=O)NCCc2ccc(Cl)cc2)nc2cccnc21 | inconclusive: 89.1 µM [inhibitor, single point]
COc1cccc(CN2CCCCC23Cc2ccccc2NC3=O)c1 (stereo unspecified) | inconclusive: 100 µM [inhibitor, partial curve, poor fit]
O=C(C1CCCN1C(=O)c1cccc(Cl)c1)N1CCC(c2ccccc2)CC1 (stereo unspecified) | inconclusive: 100 µM [inhibitor, single point]
O=C1N(CC2CCOCC2)CCOC12CCN([S+](=O)([O-])c1cccs1)CC2 | inactive
COCC(=O)N1CCC(Oc2ccc(C(=O)N(C)C)cn2)CC1 | inactive
COCCc1noc([C@@H]2CC(F)(F)CN2C(=O)CCn2cccn2)n1 | inactive
c1ccc(Nc2cc3c(cn2)NCCN(Cc2cccs2)C3)cc1 | inconclusive: 112 µM [inhibitor, partial curve, poor fit]
O=C1[C@H]2CN(Cc3cccc(OC(F)(F)F)c3)C[C@H]2C(=O)N1Cc1ccc2c(c1)OCO2 | inconclusive: 79.4 µM [inhibitor, partial curve, poor fit]
CN(C)Cc1ccc(C(=O)N[C@@H]2COCC[C@@H]2OCC(=O)O)o1 | inactive
Cc1cc(=O)n(CC(=O)Nc2cccc(C(F)(F)F)c2)c(N2CCOCC2)n1 | inconclusive: 50.1 µM [inhibitor, partial curve, poor fit]
CC(C)(C)C(=O)N1CCC(C(=O)N2CCC(c3nc4ncccc4[nH]3)CC2)CC1 | inactive
COc1ccccc1N1CCN(C(=O)Cn2c(N3CCc4ccccc4C3)nc(C)cc2=O)CC1 | active: 35.5 µM
Cc1ccc([S+](=O)([O-])N2CCN(Cc3ccccc3-c3cccnc3)CC2)cc1 | inconclusive: 44.7 µM [inhibitor, partial curve, poor fit]
CN(C(=O)C1=NO[C@@H]2CN(CCc3ccccc3)C[C@H]12)c1ccccc1 | inconclusive: 126 µM [inhibitor, single point]
CCOc1ccccc1CN1CCN(c2ncnc3[nH]ccc23)CC1CCO (stereo unspecified) | inconclusive: 50.1 µM [inhibitor, partial curve, poor fit]

Compound | Potency
CNC(=O)c1cc(C2CC2)nc2onc(C3CCN(C(=O)c4cccnc4)C3)c12 (stereo unspecified) | inactive
COc1ccc(CN2CCCCC23Cc2ccccc2CN(C(C)=O)C3)cc1 (stereo unspecified) | inconclusive: 89.1 µM [inhibitor, single point]
Cc1csc(CN(C)C(=O)CC(c2ccccc2)c2ccc3c(c2)OCO3)n1 (stereo unspecified) | active: 44.7 µM
O=C(Cc1ccccc1Cl)N1CCN(c2cc(-c3cccs3)[nH]n2)CC1 | inconclusive: 50.1 µM [inhibitor, partial curve, poor fit]
CCc1ccc(C(=O)N2CCc3[nH]nc(C(=O)NCCCc4ccccc4)c3C2)cc1 | inconclusive: 25.1 µM [inhibitor, full curve, poor fit]
COc1cccc(S(=O)(=O)N2CCC(c3noc(-c4cnccn4)n3)C2)c1 (stereo unspecified) | inactive
COc1ccc(-c2cc(N3CCN(C(=O)c4ccc(F)c(Cl)c4)CC3)n[nH]2)cc1 | inconclusive: 50.1 µM [inhibitor, partial curve, poor fit]
COc1cncc(CN2CCC3(CC2)OC(=O)N(Cc2ccccc2C#N)C3(C)c2ccccc2)c1 (stereo unspecified) | inconclusive: 79.4 µM [inhibitor, partial curve]
COc1ccc(C2=NOC3(CCN([S+](=O)([O-])c4c(C)noc4C)C3)C2)cc1 (stereo unspecified) | inconclusive: 100 µM [inhibitor, single point]
CCCCCN1CCC2(CC1)Cc1ccccc1CNC2=O | inactive
COc1ccc(-c2cc(-c3cccc(OC)c3OC)cn3cncc23)cc1 | active: 89.1 µM
CN1CCC2(Cc3ccccc3CN(C(=O)c3ccc(Cl)cc3)C2)C1 (stereo unspecified) | inconclusive: 79.4 µM [inhibitor, single point]
CC1(c2cccnc2)N(CC2CC2)C(=O)OC12CCN(C(=O)c1ccccc1)CC2 (stereo unspecified) | inactive
C[C@H]1[C@@H]2[C@H]3OC(=O)[C@@H](C)[C@@H]3CC[C@@]2(C)CC[C@@H]1NC(=O)COc1ccccc1 | inconclusive: 112 µM [inhibitor, partial curve]
COc1ccccc1Nc1ccnc(N2CCN(C(=O)c3ccccc3F)CC2)n1 | active: 44.7 µM
CCc1nc(CN2CCCC(CO)(CC3CC3)C2)cs1 (stereo unspecified) | inactive
COc1cccc(NC(=O)O[C@@H]2CO[C@H]3[C@@H]2OC[C@@H]3Nc2nccc(-c3cccc(F)c3)n2)c1 | active: 44.7 µM
Cc1nn(-c2ccccc2)c2c1C(C(C)C)N(C1CCN(C(=O)C3CC3)C1)C2=O (stereo unspecified) | inconclusive: 56.2 µM [inhibitor, partial curve, poor fit]
CCOCCOC1CCN(C(=O)Nc2ccc(OC)cc2)CC1 | inactive
COCC(=O)NCCNC(=O)c1ccc(-c2cccc(C(F)(F)F)c2)cc1 | inconclusive: 50.1 µM [inhibitor, partial curve]
COc1nc2c(cc1CNC(=O)C1CC(=O)N(C)C1)C(=O)N(C1CCCC1)C2 (stereo unspecified) | inactive
CC(C)S(=O)(=O)N(C)Cc1cccc(N2CCN(C(=O)c3c(Cl)cccc3Cl)CC2)c1F | inconclusive: 56.2 µM [inhibitor, partial curve, poor fit]
